This list was built around the results that the source calls inconclusive (neither active nor inactive); the mix of calls is not that of the screen. For some assays here: Potencies of inconclusive entries are doubtful fits and often do not repeat. The source made the active and inactive calls. Unless noted, calls follow the shape of the dose curve; as a rule, active = well fitted curve in the direction sought with a large enough effect; inconclusive = small, poorly fitted or top-dose-only effect, or another doubt; inactive = no such curve, though single readings can be large; an effect the other way counts as inactive or inconclusive.
Experiments:
[1] = NFAT Signaling Pathway (AID 444; active = well fitted curve in either direction with a large enough effect, not every such curve was filed as active; inconclusive = small, poorly fitted or top-dose-only effect, or another doubt;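 also: carbachol stimulus at about its EC50 of 1 µM final; % is scaled to controls: 0 for no effect and ±100 for the full control effect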); settings: Jurkat NFAT-bla M1, carbachol, beta-lactamase ratio, 5 h; at 7.69 µM (top of the series) unless noted
Method in brief: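 Jurkat cells carrying an NFAT-driven β-lactamase reporter and co-transfected muscarinic M1 receptor were treated with compound plus carbachol (1 uM final, an EC50 level) for 5 h at 37 °C. CCF4 loading followed for 1 h at RT; 460/530 nm ratio gave %activity.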

[2] = target: 3',5'-cyclic-AMP phosphodiesterase 4B (Homo sapiens) (UniProt Q07343); test: qHTS Assay for Inhibitors of PDE-IV (AID 607; active = well fitted activation curve with a large enough effect in the main read-out, with a control signal flat, not every such curve was filed as active; inconclusive = small, poorly fitted or top-dose-only effect, or effect the other way, or a change in a side signal; also: potency is read from the fitted curve at half-maximal effect); settings: HEK293 ACTOne CNG channel cells, membrane potential fluorescence; activation (PDE inhibition): at 22.9 µM (top of the series)
Method in brief: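 Live HEK293 cells with a modified cyclic nucleotide-gated (CNG) channel report intracellular cAMP via membrane-potential dye fluorescence (ex 535/em 590 nm). Endogenous PDE-IV was targeted. Compounds were tested at up to 22.9 uM final; RO 20-1724 100 uM served as control.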

[3] = qHTS Assay for Lipid Storage Modulators (AID 1519; calls by dose curve; also: % is scaled to controls: 0 for no effect and ±100 for the full control effect); settings: Drosophila S3 cells, BODIPY lipid droplet/cell ratio, laser cytometry, cells loaded with oleic acid; activity change, negative = inhibition: at 57.5 µM (top of the series) unless noted
Method in brief: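 Cells seeded at 5,000 per well were treated with compounds over a concentration series and loaded with oleic acid (400 uM, as added). Lipid droplet fluorescence (488 nm excitation, 500-530 nm channel) was read by laser-scanning cytometry and normalized to 20 uM Triacsin C.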

[4] = target: Rap guanine nucleotide exchange factor 4 (Homo sapiens) (UniProt Q8WZA2); test: Confirmatory qHTS for antagonist of cAMP-regulated guanine nucleotide exchange factor 4 (EPAC2) (AID 1645885); settings: activity change, negative = inhibition: at 12.7 µM (top of the series) unless noted; also: potency is read from the fitted curve at half-maximal effect; nearly all actives have a fitted effect of over 25% in size
[5] = target: Ubiquitin carboxyl-terminal hydrolase 1 (Homo sapiens) (UniProt O94782); test: Inhibitors of USP1/UAF1: Pilot qHTS (AID 504865);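 also: rhodamine fluorescence freed from ubiquitin-rhodamine substrate followed over time; potency is read from the fitted curve at half-maximal effect; nearly all actives have a fitted effect of over 35% in size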
Method in brief: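 Enzyme-free wells gave the negative control, while test wells held 1nM USP1/UAF1 preincubated with compound for 15 min at room temperature. Ub-Rho at 150nM final started the reaction, and fluorescence at 480/540 nm was recorded kinetically.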

[6] = target: Rap guanine nucleotide exchange factor 3 (Homo sapiens) (UniProt O95398); test: Confirmatory qHTS for antagonist of cAMP-regulated guanine nucleotide exchange factor 3 (EPAC1) (AID 1645880); settings: EPAC1 Rap1B-BODIPY-GDP exchange, fluorescence; activity, negative = inhibition: at 115 µM (top of the series); also: nearly all actives have a fitted effect of over 55% in size; also: potency is read from the fitted curve at half-maximal effect;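 as to activity, negative = inhibition: plate controls were DMSO only for no effect and full effect of the ATA control for full effect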
Method in brief: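 Nucleotide exchange uses 100 nM EPAC1, 250 nM RAP1B-BODIPY-GDP and 50 uM GDP, with compounds in a concentration-titration series. After 5 min at room temperature, fluorescence (480 nm ex/540 nm em) is read every 5 min for 30 min. Data are normalized to control ATA and DMSO.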

[7] = Stat Signaling Pathway (AID 446; active = well fitted curve in either direction with a large enough effect, not every such curve was filed as active; inconclusive = small, poorly fitted or top-dose-only effect, or another doubt;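 also: ME-180 cervical cancer cells given 40 pM IL-6 alongside compound; SIE-controlled beta-lactamase reporter measured as 460/530 nm FRET emission ratio; top concentration of the series differs between compounds; % is scaled to controls: 0 for no effect and ±100 for the full control effect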); settings: ME-180 SIE beta-lactamase reporter, IL-6 stimulated, 5 h; at 7.69 µM (top of the series) unless noted
Method in brief: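 IL-6/STAT signaling read in ME-180 cells via an SIE beta-lactamase reporter. Stimulus was 40 pM IL-6 (its AC50) for 5 hrs, so both activation and inhibition register.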

[8] = qHTS Assay for Identification of Small Molecule Antagonists for NFkB Signaling Pathway (AID 895; active = well fitted inhibition curve with a large enough effect in the signal ratio, with a control signal flat, not every such curve was filed as active; inconclusive = small, poorly fitted or top-dose-only effect, or effect the other way, or a change in a side signal; the % refers to the signal ratio; also: % is scaled to controls: 0 for no effect and ±100 for the full control effect); settings: NFkB beta-lactamase reporter cells, FRET ratio 460/530, stimulated with 10 pM TNF alpha; activity change, negative = inhibition: at 38.3 µM (top of the series)
Method in brief: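 NFkB-bla ME-180 cervical carcinoma cells with beta-lactamase reporter under NFkB response element; compounds added, then TNF alpha at 10 pM final (EC50), 5 h at 37 C. LiveBLAzer substrate 2 h, room temperature; emission 460/530 nm at 405 nm excitation.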

[9] = qHTS Assay for Identification of Small Molecule Antagonists for Thrombopoietin (TPO) Signaling Pathway (AID 918); settings: TPO-dependent cell signaling reporter, antagonist mode; activity change, negative = inhibition: at 38.5 µM (top of the series); also: nearly all actives have a fitted effect of over 60% in size
Method in brief: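 Murine Ba/F3 cells expressing human TPO receptor and a Glycoprotein IIb promoter-luciferase reporter, IL-3-starved overnight, treated with compound plus TPO at EC50 (26 pM final). After 24 h at 37 C, luminescence read to detect inhibitors.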

[10] = target: Muscarinic acetylcholine receptor M1 (Rattus norvegicus) (UniProt P08482); test: qHTS Assay for Antagonists of Acetylcholine Muscarinic M1 Receptor: Kinetic Measurement of Intracellular Calcium Response (AID 943); also: potency is read from the fitted curve at half-maximal effect; nearly all actives have a fitted effect of over 75% in size
Method in brief: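 CHO cells expressing rat M1 receptor, Fluo-4 loaded, preincubated 10 min with compound, then stimulated with EC80 carbachol (100 nM final). Kinetic calcium fluorescence over 4 min; response taken as peak over basal signal.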

[11] = target: DNA repair nuclease/redox regulator APEX1 (Homo sapiens) (UniProt P27695); test: qHTS Validation Assay for Inhibitors of the Human Apurinic/apyrimidinic Endonuclease 1 (APE1) (AID 1705; also: potency is read from the fitted curve at half-maximal effect)
Method in brief: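 Substrate: 50 nM final fluorophore/quencher THF-abasic duplex. Enzyme preincubated with compounds 15 min, RT. Progress derived from fluorescence difference, third minus first kinetic read.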

[12] = target: Endonuclease 4 (Escherichia coli (strain K12)) (UniProt P0A6C1); test: Counterscreen for APE1 Inhibitors: qHTS Validation Assay for Inhibitors of Endonuclease IV (AID 1708); also: % is scaled to controls: 0 for no effect and ±100 for the full control effect
Method in brief: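 Concentration-response counterscreen run identically to the APE1 assay: 15 min room-temperature preincubation of 2 nM enzyme with compound, reaction started with 50 nM quenched abasic DNA, progress taken from kinetic fluorescence.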

[13] = qHTS for differential inhibitors of proliferation of Plasmodium falciparum line 7G8 (AID 1815);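 also: potency is read from the fitted curve at half-maximal effect; parasite growth measured after three days of incubation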
[14] = qHTS for differential inhibitors of proliferation of Plasmodium falciparum line GB4 (AID 1816); settings: Potency: Plasmodium falciparum GB4 proliferation inhibition;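 also: potency is read from the fitted curve at half-maximal effect; parasite growth measured after 72 h incubation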
[15] = qHTS for differential inhibitors of proliferation of Plasmodium falciparum line 3D7 (AID 1876); also: potency is read from the fitted curve at half-maximal effect
[16] = qHTS for differential inhibitors of proliferation of Plasmodium falciparum line D10 (AID 1877);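 also: potency is read from the fitted curve at half-maximal effect; parasites grown with compound for 72 h before DNA staining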
[17] = qHTS for differential inhibitors of proliferation of Plasmodium falciparum line W2 (AID 1883); settings: Potency: Plasmodium falciparum W2 proliferation inhibition;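 also: potency is read from the fitted curve at half-maximal effect; parasites grown with compound for 72 h before lysis and staining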
[18] = qHTS for differential inhibitors of proliferation of Plasmodium falciparum line HB3 (AID 1886); settings: Potency: Plasmodium falciparum HB3 proliferation inhibition;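 also: potency is read from the fitted curve at half-maximal effect; parasites grown with compound for 72 h before SYBR Green readout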
[19] = target: Ferritin light chain (Equus caballus) (UniProt P02791); test: qHTS Validation Assay for Identification of Novel General Anesthetics (AID 2323); also: potency is read from the fitted curve at half-maximal effect
Method in brief: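 Normalized fluorescence response, scaled between free 1-AMA and 1-AMA/apoferritin complex, fitted to a four-parameter Hill equation for concentration-effect values. Binding mix: 10 uM horse-spleen apoferritin, 50% saturated 1-AMA in PBS; read 380/535 nm after 10 min.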

[20] = target: ATP-dependent 6-phosphofructokinase (Trypanosoma brucei brucei) (UniProt O15648); test: qHTS Validation Assay to Find Inhibitors of T. brucei phosphofructokinase (AID 485368); also: potency is read from the fitted curve at half-maximal effect
Method in brief: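 Activity was normalized between 1x (1.25 nM) PFK wells as no inhibition and enzyme-free wells as full inhibition, from luminescence after ADP-Glo detection of ADP made from 0.5 mM F6P and 0.1 mM ATP over 45 min.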

[21] = Quantitative high throughput screen for delayed death inhibitors of the malarial parasite plastid, 48 hour incubation (AID 488752); also: % is scaled to controls: 0 for no effect and ±100 for the full control effect; nearly all actives have a fitted effect of over 65% in size
Method in brief: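 Erythrocytes infected with firefly luciferase-expressing P. falciparum (2% hematocrit, 0.1% parasitemia) cultured with compound for 48 h at 37 C, 5% CO2, in RPMI 1640/0.5% Albumax. Growth inhibition read as loss of luminescence.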

[22] = target: Thioredoxin reductase 1, cytoplasmic (Rattus norvegicus) (UniProt O89049); test: qHTS Assay for Substrates of Mammalian Selenoprotein Thioredoxin Reductase 1 (TrxR1) (AID 488772);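 also: NADPH fluorescence in the first read after selenite addition and not the 8 min delta; 0% is about no effect; a drop in NADPH fluorescence below the no-compound background marks a TrxR1 substrate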
Method in brief: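 Quantitative HTS in Tris-HCl buffer at pH 7.5 with EDTA and Tween-20, using rat TrxR1, 400 uM NADPH and 400 uM selenite (final). A fall in initial NADPH fluorescence relative to background marked substrate behaviour.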

[23] = AP1 Signaling Pathway (AID 357; active = well fitted curve in either direction with a large enough effect, not every such curve was filed as active; inconclusive = small, poorly fitted or top-dose-only effect, or another doubt); settings: ME-180 (cervical carcinoma) AP-1-bla reporter, EGF-induced, beta-lactamase ratio, 5 h; at 7.69 µM (top of the series) unless noted
Method in brief: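 Titration-series screen for positive or negative modulators of EC50 EGF-induced signaling in ME-180 cells carrying an AP-1-driven beta-lactamase reporter. After 5 hours at 37 degrees Celsius, CCF4 460nm/530nm emission ratio gave %Activity; AC50 values derived.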

[24] = target: Cytochrome P450 2C9 (Homo sapiens) (UniProt P11712); test: qHTS Assay for Inhibitors and Substrates of Cytochrome P450 2C9 (AID 883); also: potency is read from the fitted curve at half-maximal effect; nearly all actives have a fitted effect of over 60% in size
Method in brief: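 CYP2C9 deoxyluciferin hydroxylation, 37C, 60 min with NADPH regeneration; 10nM enzyme, 100uM Luciferin-H (KM). Glo detection reagent stopped reaction; luminescence normalized to sulphaphenazole (57uM) full inhibition.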

[25] = target: Cytochrome P450 2D6 (Homo sapiens) (UniProt P10635); test: qHTS Assay for Inhibitors and Substrates of Cytochrome P450 2D6 (AID 891);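 also: luciferin methyl ether substrate demethylated by CYP2D6 with NADPH regeneration; potency is read from the fitted curve at half-maximal effect; nearly all actives have a fitted effect of over 60% in size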
Method in brief: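 Human CYP2D6 (5 nM) with 30 uM Luciferin-ME EGE (at Km) in 100 mM KPO4, compound preincubated 10 min, then NADPH regeneration system for 60 min at room temperature. Luciferin read by luminescence; normalized to 1.43 uM quinidine.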

[26] = target: Cytochrome P450 2C19 (Homo sapiens) (UniProt P33261); test: qHTS Assay for Inhibitors and Substrates of Cytochrome P450 2C19 (AID 899); also: potency is read from the fitted curve at half-maximal effect; nearly all actives have a fitted effect of over 60% in size
Method in brief: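 In 50mM KPO4, the reaction held 5nM enzyme and KM-level (10uM) Luciferin-H EGE; it ran 60 min at 37C after NADPH regeneration and a 10 min compound preincubation. Luminescence values were scaled to 57uM ketoconazole as complete inhibition.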
Tags tell the direction and shape of the fitted curve.

Chain of UniProt Q07343 (Q07343 whole entry, looked up): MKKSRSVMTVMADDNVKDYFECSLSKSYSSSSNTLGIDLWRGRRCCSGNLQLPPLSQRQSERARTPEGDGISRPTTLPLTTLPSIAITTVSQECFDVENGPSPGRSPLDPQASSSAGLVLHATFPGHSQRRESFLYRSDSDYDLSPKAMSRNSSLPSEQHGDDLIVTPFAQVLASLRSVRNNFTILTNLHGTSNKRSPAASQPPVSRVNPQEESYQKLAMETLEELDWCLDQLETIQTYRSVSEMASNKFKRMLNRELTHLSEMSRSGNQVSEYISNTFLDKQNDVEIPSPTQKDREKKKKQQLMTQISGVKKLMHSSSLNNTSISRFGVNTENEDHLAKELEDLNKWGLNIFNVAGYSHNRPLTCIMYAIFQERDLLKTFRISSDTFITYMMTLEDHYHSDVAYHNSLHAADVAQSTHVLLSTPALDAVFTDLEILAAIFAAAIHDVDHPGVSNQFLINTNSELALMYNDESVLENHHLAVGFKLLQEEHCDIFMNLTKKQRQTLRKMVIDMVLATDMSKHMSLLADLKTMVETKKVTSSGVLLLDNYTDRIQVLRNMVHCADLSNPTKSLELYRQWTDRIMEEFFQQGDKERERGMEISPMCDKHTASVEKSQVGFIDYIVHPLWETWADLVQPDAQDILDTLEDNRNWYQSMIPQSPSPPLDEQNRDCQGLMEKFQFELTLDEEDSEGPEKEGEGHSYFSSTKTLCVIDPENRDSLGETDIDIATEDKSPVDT
Chain of UniProt Q8WZA2 (Q8WZA2 whole entry, looked up): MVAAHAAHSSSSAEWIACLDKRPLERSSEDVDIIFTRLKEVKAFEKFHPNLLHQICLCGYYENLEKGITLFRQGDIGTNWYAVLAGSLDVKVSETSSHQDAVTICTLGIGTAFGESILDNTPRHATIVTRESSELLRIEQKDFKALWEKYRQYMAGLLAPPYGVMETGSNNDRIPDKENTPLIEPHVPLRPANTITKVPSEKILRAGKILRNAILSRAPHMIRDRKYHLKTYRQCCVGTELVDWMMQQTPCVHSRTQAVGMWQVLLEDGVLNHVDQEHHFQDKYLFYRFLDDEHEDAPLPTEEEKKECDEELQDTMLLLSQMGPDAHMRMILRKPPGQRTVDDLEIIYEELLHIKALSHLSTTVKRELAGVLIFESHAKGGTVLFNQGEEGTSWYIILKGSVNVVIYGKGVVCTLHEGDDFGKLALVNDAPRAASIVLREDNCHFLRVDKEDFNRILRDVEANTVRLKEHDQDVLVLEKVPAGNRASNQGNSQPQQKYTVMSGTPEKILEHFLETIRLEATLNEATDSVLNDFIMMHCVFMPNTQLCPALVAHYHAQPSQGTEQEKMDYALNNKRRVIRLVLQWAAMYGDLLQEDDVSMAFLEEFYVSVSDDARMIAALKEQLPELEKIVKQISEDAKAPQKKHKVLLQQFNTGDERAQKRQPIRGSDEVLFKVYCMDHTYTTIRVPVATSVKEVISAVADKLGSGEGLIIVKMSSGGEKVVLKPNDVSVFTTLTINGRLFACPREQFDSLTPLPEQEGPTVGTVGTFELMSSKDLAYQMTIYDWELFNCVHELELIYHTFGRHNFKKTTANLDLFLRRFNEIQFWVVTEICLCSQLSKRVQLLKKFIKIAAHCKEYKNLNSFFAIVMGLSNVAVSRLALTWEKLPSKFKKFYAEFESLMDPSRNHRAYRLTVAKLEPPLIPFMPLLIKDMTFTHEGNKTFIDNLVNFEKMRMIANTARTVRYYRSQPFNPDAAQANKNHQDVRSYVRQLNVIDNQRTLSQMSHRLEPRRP
Chain of UniProt O95398 (O95398 whole entry, looked up): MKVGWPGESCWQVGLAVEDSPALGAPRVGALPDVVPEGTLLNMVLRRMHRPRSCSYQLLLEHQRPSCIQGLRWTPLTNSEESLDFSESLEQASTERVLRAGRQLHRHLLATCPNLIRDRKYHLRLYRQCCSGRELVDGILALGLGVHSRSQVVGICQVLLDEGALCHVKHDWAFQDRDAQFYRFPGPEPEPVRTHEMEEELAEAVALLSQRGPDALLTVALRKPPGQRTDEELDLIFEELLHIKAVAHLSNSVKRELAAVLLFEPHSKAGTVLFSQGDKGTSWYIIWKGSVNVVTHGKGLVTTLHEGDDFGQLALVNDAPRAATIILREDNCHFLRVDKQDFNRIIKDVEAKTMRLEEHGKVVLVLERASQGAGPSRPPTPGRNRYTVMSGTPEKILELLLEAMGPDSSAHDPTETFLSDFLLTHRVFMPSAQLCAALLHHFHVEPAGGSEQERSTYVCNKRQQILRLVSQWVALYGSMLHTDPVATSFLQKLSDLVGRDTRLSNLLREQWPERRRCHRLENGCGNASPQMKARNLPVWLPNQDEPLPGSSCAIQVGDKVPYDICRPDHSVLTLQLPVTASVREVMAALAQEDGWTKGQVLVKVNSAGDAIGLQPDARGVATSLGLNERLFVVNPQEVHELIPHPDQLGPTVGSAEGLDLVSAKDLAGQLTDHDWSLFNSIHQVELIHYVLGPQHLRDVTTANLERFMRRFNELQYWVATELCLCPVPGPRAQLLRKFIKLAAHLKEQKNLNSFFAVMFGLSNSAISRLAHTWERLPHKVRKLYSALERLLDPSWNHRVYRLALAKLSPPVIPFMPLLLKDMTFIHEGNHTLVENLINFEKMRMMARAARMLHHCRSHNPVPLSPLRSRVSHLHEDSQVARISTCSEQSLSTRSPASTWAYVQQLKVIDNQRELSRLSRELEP
Chain of UniProt P08482 (P08482 whole entry, looked up): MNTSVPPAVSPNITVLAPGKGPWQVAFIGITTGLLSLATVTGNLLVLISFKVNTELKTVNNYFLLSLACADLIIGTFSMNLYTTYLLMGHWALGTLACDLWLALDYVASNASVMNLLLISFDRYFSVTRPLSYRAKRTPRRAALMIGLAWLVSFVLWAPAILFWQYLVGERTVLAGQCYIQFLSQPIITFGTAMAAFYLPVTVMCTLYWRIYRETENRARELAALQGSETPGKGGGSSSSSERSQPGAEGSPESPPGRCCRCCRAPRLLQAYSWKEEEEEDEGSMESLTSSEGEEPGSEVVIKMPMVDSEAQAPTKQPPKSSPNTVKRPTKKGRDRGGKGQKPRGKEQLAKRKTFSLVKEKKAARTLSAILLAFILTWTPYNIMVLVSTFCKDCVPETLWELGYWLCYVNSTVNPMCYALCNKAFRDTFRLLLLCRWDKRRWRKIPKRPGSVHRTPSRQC
Chain of UniProt P10635 (P10635 whole entry, looked up): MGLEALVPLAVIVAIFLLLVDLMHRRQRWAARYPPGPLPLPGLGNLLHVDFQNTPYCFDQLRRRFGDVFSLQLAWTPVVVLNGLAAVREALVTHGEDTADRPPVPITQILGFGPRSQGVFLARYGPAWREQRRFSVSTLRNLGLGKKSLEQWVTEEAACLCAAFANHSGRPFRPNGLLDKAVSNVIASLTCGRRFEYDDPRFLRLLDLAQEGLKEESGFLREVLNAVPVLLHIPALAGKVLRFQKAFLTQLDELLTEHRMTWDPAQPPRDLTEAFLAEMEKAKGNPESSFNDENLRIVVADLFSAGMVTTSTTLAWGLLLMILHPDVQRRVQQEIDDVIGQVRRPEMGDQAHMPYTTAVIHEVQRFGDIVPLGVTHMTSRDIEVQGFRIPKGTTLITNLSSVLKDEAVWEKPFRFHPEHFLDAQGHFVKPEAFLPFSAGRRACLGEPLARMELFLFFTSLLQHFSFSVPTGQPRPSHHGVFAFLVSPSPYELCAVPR
Chain of UniProt P33261 (P33261 whole entry, looked up): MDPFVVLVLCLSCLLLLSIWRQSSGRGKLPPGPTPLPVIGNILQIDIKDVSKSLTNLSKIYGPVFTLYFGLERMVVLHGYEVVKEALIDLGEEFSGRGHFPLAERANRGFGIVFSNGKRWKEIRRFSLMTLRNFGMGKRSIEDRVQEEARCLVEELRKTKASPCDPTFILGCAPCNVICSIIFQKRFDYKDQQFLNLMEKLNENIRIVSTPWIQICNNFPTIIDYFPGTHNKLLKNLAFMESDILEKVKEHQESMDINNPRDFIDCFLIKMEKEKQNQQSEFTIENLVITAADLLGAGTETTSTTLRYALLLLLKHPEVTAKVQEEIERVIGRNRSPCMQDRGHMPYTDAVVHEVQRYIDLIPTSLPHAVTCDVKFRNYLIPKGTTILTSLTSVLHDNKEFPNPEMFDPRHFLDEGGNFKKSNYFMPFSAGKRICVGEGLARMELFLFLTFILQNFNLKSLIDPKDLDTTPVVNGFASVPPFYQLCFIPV
Chain of UniProt P11712 (P11712 whole entry, looked up): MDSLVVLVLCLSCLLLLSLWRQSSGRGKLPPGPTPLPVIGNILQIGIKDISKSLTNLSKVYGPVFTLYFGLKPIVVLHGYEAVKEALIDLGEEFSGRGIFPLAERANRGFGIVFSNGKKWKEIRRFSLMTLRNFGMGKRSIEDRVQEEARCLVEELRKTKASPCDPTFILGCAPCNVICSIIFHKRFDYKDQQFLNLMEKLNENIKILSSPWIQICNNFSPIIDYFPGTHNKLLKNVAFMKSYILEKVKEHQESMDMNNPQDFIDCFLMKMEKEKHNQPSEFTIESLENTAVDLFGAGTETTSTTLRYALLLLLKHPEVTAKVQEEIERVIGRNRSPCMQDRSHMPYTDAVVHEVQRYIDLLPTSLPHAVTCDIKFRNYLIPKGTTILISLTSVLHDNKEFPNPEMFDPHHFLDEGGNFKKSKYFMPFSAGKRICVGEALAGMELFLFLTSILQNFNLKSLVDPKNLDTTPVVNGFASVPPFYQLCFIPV
Chain of UniProt P27695 (P27695 whole entry, looked up): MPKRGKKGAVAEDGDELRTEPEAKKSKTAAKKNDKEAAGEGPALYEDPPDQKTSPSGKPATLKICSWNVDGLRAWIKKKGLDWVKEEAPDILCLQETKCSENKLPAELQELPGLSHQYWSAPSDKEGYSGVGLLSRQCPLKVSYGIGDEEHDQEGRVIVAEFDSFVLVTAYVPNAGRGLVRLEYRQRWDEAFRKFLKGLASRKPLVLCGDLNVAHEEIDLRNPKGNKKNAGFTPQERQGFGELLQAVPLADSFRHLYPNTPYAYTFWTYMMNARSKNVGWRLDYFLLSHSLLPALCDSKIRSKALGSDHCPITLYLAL

O=c1c(-c2ccc(F)c(F)c2)nc2cncnc2n1Cc1ccccc1Cl
inactive: activity change, negative = inhibition [1] -7.38%
inconclusive: Potency [2] 10 µM [activator, partial curve] | activity change, negative = inhibition [3] 0.677% | Potency [4] 39.3 µM [inhibitor, partial curve, poor fit]

O=c1c(O)c(-c2ccccc2)oc2ccc3occc3c12
active: Potency [4] 5.55 µM
inconclusive: activity change, negative = inhibition [3] 8.89% | Potency [5] 63.1 µM [inhibitor, partial curve] | Potency [6] 70.3 µM [inhibitor, partial curve, poor fit]

N=C(N)SCCN
inactive: Potency [3] | Potency [12] | Potency [21] | Potency [22]
inconclusive: activity, negative = inhibition [7] 44.1% [activator] [at 38 µM] | Potency [2] 19 µM [inhibitor, single point] | activity change, negative = inhibition [8] -31.8% | activity change, negative = inhibition [9] -14.8% [phenotype inactive] | Potency [10] 0.0282 µM [inhibitor, full curve, poor fit] | Potency [11] 44.7 µM [inhibitor, single point] | Potency [13] 11.2 µM [inhibitor, single point] | Potency [14] 12.6 µM [inhibitor, single point] | Potency [15] 11.2 µM [inhibitor, single point] | Potency [16] 17.8 µM [inhibitor, single point] | Potency [17] 11.2 µM [inhibitor, single point] | Potency [18] 17.8 µM [inhibitor, single point] | Potency [19] 50.1 µM [inhibitor, single point] | Potency [20] 42.6 µM [activator, single point]

C#C[C@]1(OC(C)=O)CCC2C3CCC4=CC(=O)CCC4C3CC[C@]21C (stereo partly drawn)
inactive: Potency [3] | Potency [6]
inconclusive: Potency [4] 55.5 µM [inhibitor, partial curve]

COc1cccc(Nc2ncc3ncc(=O)n(Cc4cccs4)c3n2)c1
inconclusive: activity change, negative = inhibition [23] -128% [inhibitor] | activity change, negative = inhibition [1] -127% [inhibitor] | activity, negative = inhibition [7] -104% [inhibitor] | Potency [2] 12.6 µM [rising, single point] | Potency [24] 2.51 µM [inhibitor, full curve] | Potency [25] 3.98 µM [inhibitor, full curve] | Potency [26] 3.98 µM [inhibitor, full curve] | activity change, negative = inhibition [3] -18.8% | Potency [4] 11.1 µM [inhibitor, partial curve]

From PubChem BioAssay (NCATS)
